The list shows a part of the results.
Key:
[1] = tested on: HSkMC (human skeletal muscle cells); experiment: cytotoxicity call (relative viability < 0.9); conditions: 10 µM
[2] = tested on: HepG2; experiment: cytotoxicity call (relative viability < 0.9); conditions: 10 µM
[3] = tested on: S. aureus RN4220; experiment: growth inhibition call (relative growth <= 0.2); conditions: 50 µM

SMILES | cytotoxicity call [1] | cytotoxicity call [2] | growth inhibition call [3]
COC(=O)c1c(C)cc(O)cc1O | inactive | inactive | inactive
CC(C)n1nccc1NC(=O)CN | inactive | inactive | inactive
C[C@H](CO)N1C[C@H](C)[C@H](CN(C)Cc2ccncc2)Oc2ccc(NC(=O)CCN3CCOCC3)cc2CC1=O | inactive | inactive | inactive
O=P(O)(O)CN(CCN(CP(=O)(O)O)CP(=O)(O)O)CP(=O)(O)O | inactive | inactive | inactive
COc1ccc2c3c([nH]c2c1)[C@@H](CO)N(Cc1ccc(cc1)Cl)C[C@]13CCN(CC1)Cc1ccccc1 | active | active | inactive
COc1ccc(S(=O)(=O)N(C)C[C@@H]2Oc3ccc(NS(C)(=O)=O)cc3CC(=O)N([C@@H](C)CO)C[C@H]2C)cc1 | inactive | inactive | inactive
C[C@H](CO)N1C[C@H](C)[C@H](CN(C)CC2CCCCC2)Oc2ccc(NS(=O)(=O)c3cn(C)cn3)cc2C1=O | inactive | inactive | inactive
NCC[C@H]1CC[C@H](NC(=O)NC2CCCCC2)[C@H](CO)O1 | inactive | inactive | inactive
Cc1cccc(N(CC(=O)O)CC(=O)O)c1 | inactive | inactive | inactive
C[C@@H]1CN([C@H](C)CO)C(=O)Cc2cc(NC(=O)CCC(F)(F)F)ccc2O[C@@H]1CN(C)Cc1ccc(-c2ccccc2)cc1 | inactive | active | inactive
C[C@@H]1CCCCO[C@@H](CN(C)C(=O)c2ccccc2)[C@@H](C)CN([C@H](C)CO)C(=O)c2cc(NC(=O)c3ccccc3)ccc2O1 | inactive | inactive | inactive
C[C@H]1CCCCO[C@H](CN(C)C(=O)Nc2ccc(F)cc2)[C@@H](C)CN([C@@H](C)CO)C(=O)c2cc(NC(=O)CCCN(C)C)ccc2O1 | inactive | inactive | inactive
C[C@@H]1CN([C@H](C)CO)C(=O)CCCn2nncc2CO[C@@H]1CN(C)Cc1cccc2c1OCCCO2 | inactive | inactive | inactive
C[C@@H]1CN([C@H](C)CO)S(=O)(=O)c2ccc(-c3ccc(C(=O)N(C)C)cc3)cc2O[C@@H]1CN(C)C(=O)C1CCOCC1 | inactive | inactive | inactive
COc1ccc(S(=O)(=O)Nc2ccc3c(c2)C(=O)N([C@H](C)CO)C[C@H](C)[C@@H](CN(C)C(=O)Nc2cccc4ccccc24)OCCCC[C@H](C)O3)cc1 | inactive | active | inactive
O=C1OC2(c3ccc(O)cc3Oc3cc(O)ccc32)c2ccccc21 | inactive | inactive | inactive
COc1ccc(NC(=O)Nc2ccc3c(c2)C(=O)N([C@H](C)CO)C[C@H](C)[C@H](CN(C)C(=O)Nc2c(C)noc2C)OCCCC[C@H](C)O3)cc1 | inactive | inactive | inactive
C[C@@H]1O[C@@H](O[C@@H]2[C@@H](O)[C@H](OCCc3ccc(O)c(O)c3)O[C@H](CO)[C@H]2OC(=O)/C=C/c2ccc(O)c(O)c2)[C@H](O)[C@H](O)[C@H]1O | inactive | inactive | inactive
C[C@@H]1CN([C@H](C)CO)C(=O)c2cc(NC(=O)Nc3ccc(C(F)(F)F)cc3)ccc2O[C@@H](C)CCCCO[C@H]1CN(C)C(=O)C1CCCCC1 | inactive | inactive | inactive

SMILES | cytotoxicity call [1] | cytotoxicity call [2] | growth inhibition call [3]
COCCOC(=O)N1C(=O)[C@@]2(c3cc(C#CC4(O)CCCCCC4)ccc31)[C@H](c1ccccc1OCCO)N1[C@H](c3ccccc3)[C@H](c3ccccc3)OC(=O)[C@H]1[C@@H]2C(=O)N1CCc2cc(OC)c(OC)cc2C1 | inactive | inactive | inactive
O=C(C[C@H]1CC[C@@H]2[C@H](COC[C@H](O)CN2S(=O)(=O)c2ccccc2)O1)NCCN1CCCCC1 | inactive | inactive | inactive
C[C@@H]1CN([C@@H](C)CO)C(=O)c2cc(NC(=O)C3CC3)ccc2O[C@H]1CN(C)Cc1ccc2c(c1)OCO2 | inactive | inactive | inactive
C[C@H]1CN([C@@H](C)CO)C(=O)c2cc(C#Cc3ccncc3)cnc2O[C@H]1CN(C)S(=O)(=O)c1ccccc1F | inactive | active | inactive
C[C@@H]1CN([C@H](C)CO)C(=O)c2cc(NC(=O)Nc3ccc4c(c3)OCO4)ccc2O[C@@H]1CN(C)Cc1ccc(C(F)(F)F)cc1 | active | active | inactive
CCCCCCCCCCCCCCCCCCCC(=O)N[C@H]1CC[C@@]2(C)[C@@H](C1)C[C@@H](O)[C@@H]1[C@@H]2C[C@H](O)[C@]2(C)[C@@H]([C@H](C)CCC(=O)O)CC[C@@H]12 | active | inactive | inactive
NCC[C@@H]1CC[C@H](NC(=O)c2ccccc2F)[C@H](CO)O1 | inactive | inactive | inactive
C[C@H]1CN([C@@H](C)CO)C(=O)c2cc(NC(=O)CCN3CCOCC3)ccc2O[C@H]1CN(C)S(C)(=O)=O | inactive | inactive | inactive
C[C@@H]1CN([C@H](C)CO)C(=O)c2cccc(NC(=O)c3nc4ccccc4s3)c2O[C@@H]1CN(C)C(=O)Nc1cccc2ccccc12 | inactive | inactive | inactive
COc1ccc(S(=O)(=O)Nc2ccc3c(c2)C(=O)N([C@@H](C)CO)C[C@H](C)[C@@H](CN(C)Cc2ccc(Cl)c(Cl)c2)OCCCC[C@H](C)O3)cc1 | inactive | active | inactive
CCOc1nc2cccc(C(=O)OC(C)OC(=O)OC3CCCCC3)c2n1Cc1ccc(-c2ccccc2-c2nnn[nH]2)cc1 (stereo not drawn) | inactive | inactive | inactive
Cn1cnc(S(=O)(=O)N[C@H]2CC[C@@H](CC(=O)NCC3CC3)O[C@@H]2CO)c1 | inactive | inactive | inactive
CC(C)NC(=O)Nc1ccc2c(c1)C(=O)N([C@H](C)CO)C[C@@H](C)[C@H](CN(C)Cc1ccc(Cl)c(Cl)c1)OCCCC[C@@H](C)O2 | inactive | active | inactive
COc1ccc(NC(=O)Nc2ccc3c(c2)C(=O)N([C@@H](C)CO)C[C@@H](C)[C@@H](CN(C)C(=O)C2CCCCC2)OCCCC[C@@H](C)O3)cc1 | inactive | inactive | inactive
CCS(=O)(=O)Nc1ccc2c(c1)C(=O)N(C)C[C@H](OC)[C@@H](C)CN(CCC(F)(F)F)[C@H](C)CO2 | inactive | inactive | inactive
C[C@@H]1CN([C@H](C)CO)C(=O)Cc2cc(NS(C)(=O)=O)ccc2O[C@H]1CN(C)S(=O)(=O)c1ccc(Cl)cc1 | inactive | inactive | inactive
N#Cc1ccc(-c2ccccc2F)o1 | inactive | inactive | inactive
COc1ccc(NC(=O)N(C)C[C@@H]2OCCCC[C@@H](C)Oc3ccc(NC(=O)Cc4ccccc4)cc3C(=O)N([C@@H](C)CO)C[C@@H]2C)cc1 | inactive | inactive | inactive
CC(C)CC(=O)Nc1cncc(-c2ccc3[nH]nc(-c4nc5cncc(-c6cccc(F)c6)c5[nH]4)c3c2)c1 | active | active | inactive

SMILES | cytotoxicity call [1] | cytotoxicity call [2] | growth inhibition call [3]
C[C@H](CO)N1C[C@H](C)[C@@H](CN(C)S(C)(=O)=O)Oc2ccc(NC(=O)Cc3ccccc3)cc2C1=O | inactive | inactive | inactive
Cc1ccc(S(=O)(=O)N(C)C[C@H]2OCCCC[C@H](C)Oc3ccc(NC(=O)CCCCCC(=O)Nc4ccccc4N)cc3C(=O)N([C@@H](C)CO)C[C@@H]2C)cc1 | inactive | inactive | inactive
C[C@@H](O)CC(C)(C)O | inactive | inactive | inactive
C[C@H](CO)N1C[C@H](C)[C@H](CN(C)CC2CCCCC2)OCCCC[C@H](C)Oc2ccc(NC(=O)CCC(F)(F)F)cc2C1=O | inactive | inactive | inactive
C[C@H]1CN([C@@H](C)CO)C(=O)c2cc(NC(=O)Nc3ccc(C(F)(F)F)cc3)ccc2O[C@H]1CN(C)Cc1ccc(Oc2ccccc2)cc1 | active | active | inactive
Cc1ccc(S(=O)(=O)N[C@H](C(=O)NCCn2cc(CN3C(=O)COC[C@H]3c3ccccc3)nn2)C(C)C)cc1 | inactive | inactive | inactive
C[C@@H]1CCCCO[C@@H](CN(C)C(=O)Nc2ccc(F)cc2)[C@@H](C)CN([C@@H](C)CO)C(=O)c2cc(NC(=O)Nc3ccc(F)cc3)ccc2O1 | inactive | inactive | inactive
C[C@@H]1CN([C@H](C)CO)S(=O)(=O)c2ccc(/C=C/c3ccccc3)cc2O[C@@H]1CN(C)C(=O)CN1CCOCC1 | inactive | inactive | inactive
C[C@@](Cc1ccccc1)(NC(=O)CN)c1ccccc1 | inactive | inactive | inactive
C[C@@H]1CN([C@@H](C)CO)C(=O)c2cc(C#C[C@@H](C)O)cnc2O[C@@H]1CN(C)C(=O)CN1CCOCC1 | inactive | inactive | inactive
COc1ccc(CN(C)C[C@@H]2OCCCC[C@@H](C)Oc3ccc(NC(=O)NC4CCCCC4)cc3C(=O)N([C@H](C)CO)C[C@H]2C)cc1 | inactive | inactive | inactive
CC(C)C[C@H]1CC(=O)N=C(N)N1 | inactive | inactive | inactive
Cc1noc(C)c1NC(=O)Nc1cccc2c1O[C@H](CN(C)Cc1ccc(C(F)(F)F)cc1)[C@H](C)CN([C@H](C)CO)C2=O | inactive | inactive | inactive
O=C(O)c1cnn2c1CCCC2 | inactive | inactive | inactive
C[C@@H]1CN([C@H](C)CO)C(=O)c2cc(NC(=O)c3ccncc3)ccc2O[C@H]1CN(C)S(=O)(=O)c1ccc(F)cc1 | inactive | inactive | inactive
CO[C@H]1CN(C)C(=O)c2cc(NC(=O)Nc3cccc(F)c3)ccc2OC[C@@H](C)N(C(=O)Nc2c(C)noc2C)C[C@@H]1C | inactive | inactive | inactive
C[C@@H]1CN([C@@H](C)CO)C(=O)Cc2cc(NC(=O)Cn3cnnn3)ccc2O[C@@H]1CN(C)S(C)(=O)=O | inactive | inactive | inactive
COc1ccc(S(=O)(=O)N(C)C[C@@H]2OCCCC[C@H](C)Oc3ccc(NC(=O)C4CCCCC4)cc3C(=O)N([C@H](C)CO)C[C@@H]2C)cc1 | inactive | inactive | inactive

From the antibiotic and cytotoxicity screens of Wong et al. (2023)
